We go through 30 compounds from PubChem BioAssay AID1240 (Sanford-Burnham Center for Chemical Genomics, 2008).

In all, about 50,000 compounds went through this assay and about 800 (1.6%) showed an effect of 50% or more. The list shows a part of the results.

The test addresses Bcl-2-like protein 10 (Homo sapiens) (UniProt Q9HD36). Put plainly: Phenotype converters, Bcl-B/TR3 peptide binding displacement, primary biochemical FP (AID 1240).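 Note: 0% = Bcl-B with tracer peptide and DMSO and 100% = tracer peptide lacking Bcl-B.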 Particulars: GST-Bcl-B / FITC-TR3 peptide fluorescence polarization; stronger effect = higher value; compound at 3.75 mg/L. Background: Polarisation of emitted light reports the rotation of a fluorescent probe.
Chain of UniProt Q9HD36 (Q9HD36 whole entry, looked up): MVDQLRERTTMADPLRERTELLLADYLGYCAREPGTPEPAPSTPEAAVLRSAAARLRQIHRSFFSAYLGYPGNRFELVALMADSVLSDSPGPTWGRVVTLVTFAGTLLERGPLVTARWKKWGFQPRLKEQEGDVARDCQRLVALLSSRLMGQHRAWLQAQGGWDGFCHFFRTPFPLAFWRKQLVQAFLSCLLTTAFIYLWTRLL
As for `COc1cccc(OCCn2cc(C=C3C(=O)NC(=O)NC3=O)c3ccccc32)c1`, the displacement amounted to 15.2%.
Then `COc1ccc(S(=O)(=O)N(CC(=O)Nc2cc(C)ccc2C)c2ccc(C)cc2)cc1OC`, with 2.9%; and `COc1cc(C(=O)NC(NC(=S)N2CCOCC2)C(Cl)(Cl)Cl)cc(OC)c1OC` (stereo not given), with -11.7%; and `COc1ccc(N2C(=O)c3ccccc3NC2c2ccc(OC)cc2OC)cc1` (stereo not given), with 17.4%.
`O=C(CSc1nc2ccccc2o1)Nc1ccccc1[N+](=O)[O-]`: the displacement is -7.3%.
The same measure for `COC(=O)C1=NN(C(=O)c2ccc([N+](=O)[O-])cc2)C(O)(c2ccccc2)C1` (stereo not given): -11.9%.
As to `O=C1CC(N2CCC(O)CC2)C(=O)N1c1ccc(Br)cc1` (stereo not given), the displacement was -8.3%.
The same measure for `CC(=O)/C(=C(/C)O)c1cc(C(C)(C)C)c(O)c(O)c1C(C)(C)C`: 3.6%; for `C=COCCNC(=O)C(=O)Nc1c(C)cccc1C`: 1.9%.
The same measure for `Cc1nc(NC(=O)c2ccccc2Br)sc1C`: -14.2%; for `CC(C)C1=NN2C(=N)/C(=C/c3ccc(Sc4ccc(Cl)cc4)o3)C(=O)N=C2S1`: -18.4%.
The same measure for `COC(=O)C1CN(S(=O)(=O)c2ccccc2)CCN1S(=O)(=O)c1ccccc1` (stereo not given): 0.1%.
`CC(/C=C/c1ccccc1)=N\Nc1ccc([N+](=O)[O-])cc1[N+](=O)[O-]`: the displacement came out at 14.9%.
Regarding `O=C(CC1(O)C(=S)Nc2ccccc21)c1ccc(Br)cc1` (stereo not given), the displacement was -14.3%.
The same measure for `COc1cc(NC(=O)c2ccc(C)c([N+](=O)[O-])c2)cc(OC)c1`: -5.1%; for `CC(=O)NC1=NC(=O)/C(=C\c2ccc(-c3ccc(Cl)c(C(=O)O)c3)o2)S1`: -115%; for `COc1ccccc1C(=O)NNC(=O)COc1ccc(C)cc1C`: 5.9%.
As to `CC(=O)N1C(=O)/C(=C2\SC(=O)NC2=O)c2ccccc21`, the displacement is -8%.
With `COc1cc(/C=N/Nc2ccc([N+](=O)[O-])cc2)ccc1OC(C)=O`, the displacement is 6.1%.
Then `CCOc1ccccc1/C=N/Nc1nnc(-c2ccccc2)c(=O)[nH]1`, with -10.7%; and `COc1ccc(C2=CC(=O)CC(c3ccccc3)C2)cc1` (stereo not given), with -9.1%.
Take `O=C(O)CN(c1ccc(Cl)cc1)S(=O)(=O)c1ccccc1`: the displacement is -2.3%.
On to `COc1cc(/C=C2\C(=O)NN(c3ccccc3)C2=O)cc(OC)c1`, for which the displacement was 2.3%.
In the case of `CCC(Oc1ccccc1)C(=O)Nc1cc(Cl)ccc1Cl` (stereo not given), the displacement is -3.6%.
With `Cc1ccc(S(=O)(=O)N2CCSC2c2ccccc2)cc1` (stereo not given), the displacement stood at 7.3%.
Regarding `CCOc1cc(/C=C2\SC(=S)N(Cc3ccco3)C2=O)ccc1O`, the displacement is -18.8%.
Regarding `O=C(Nc1ccccc1Br)c1ccccc1O`, the displacement was -10.4%.
Then `Cn1c(=O)c2c(ncn2CC(=O)Nc2ncccn2)n(C)c1=O`, with -4.6%; and `Cc1c(C#N)c2ccc(O)c(CN(C)C)c2n1-c1ccccc1`, with 44.3%.
For `O=C(Nc1ccc(Cl)cc1Cl)c1cc2nc(-c3ccccc3)cc(C(F)(F)F)n2n1`, the displacement is -10%.
